# Laboratory results as given in PubChem BioAssay (NCATS).
# Where “and” joins values, the source holds several entries; their conditions need not be identical. Equal values may be shown once. The list shows a part of the results. Shown are side measurements of this screen, not its main read-out; they come without a call. For some of these results: The list favours compounds with an active or inconclusive main result. Potencies come from curve fits of mixed quality, noted in brackets.
# Legend:
# [1] = molecular target: Nicotinamide N-methyltransferase (Homo sapiens) (UniProt P40261); test: Confirmatory Screen for Target Class Profiling of Small Molecule Inhibitors of Methyltransferases (AID 1745852); conditions: MTase-Glo luminescence, SAH detection, recombinant enzyme; measured here: NNMT inhibition potency;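 note: inhibitor potency for blocking SAH production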
# [2] = qHTS drug screen for cell cycle checkpoint inhibitors in PARPi-resistant BRCA-mutant ovarian cancer cell lines. (AID 1963452); conditions: PEO1/OlaR viability, CellTiter-Glo luminescence, 96 h
# Method in brief: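 PEO1, PEO4 and PEO1/OlaR ovarian cancer cells, 600 per well, exposed 96 h at 37C to a dilution series. Viability read by CellTiter-Glo luminescence, normalized to DMSO and empty wells; activity summarized as Z-AUC.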
# [3] = molecular target: Phenylethanolamine N-methyltransferase (Homo sapiens) (UniProt P11086); test: Confirmatory Screen for Target Class Profiling of Small Molecule Inhibitors of Methyltransferases (AID 1745852); conditions: MTase-Glo luminescence, SAH detection, recombinant enzyme; measured here: PNMT inhibition potency;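 note: inhibitor potency for blocking SAH production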
# [4] = qHTS for identification of novel therapeutic agents for treatment of microphthalmiaassociated transcription factor (MiT) renal cell carcinoma (RCC) (AID 1963991); conditions: CellTiter-Glo, 48 h; for z-score: stronger effect = lower value
# Method in brief: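 Three TFE3-fusion RCC cell lines (UOK109, UOK124, UOK145), 500 cells/well, were exposed to the 1912-compound MIPE 4.0 library for 48 hours at 37 C. Viability was read by CellTiter-Glo luminescence, normalised to DMSO (100%) and empty wells (0%), with 11-concentration curve fits.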
# [5] = measured here: PEO1 parental viability
# [6] = TFE3-RCC UOK109 viability, measured here: UOK109 Z-AUC
# [7] = TFE3-RCC viability, measured here: UOK124 Z-AUC
# [8] = TFE3-RCC viability, measured here: UOK124 cell viability
# [9] = TFE3-RCC viability, measured here: UOK145 Z-AUC
# [10] = TFE3-RCC viability, measured here: UOK145 cell viability
# Tags give direction and shape of the fitted curve.
# UniProt P11086, sequence (P11086 whole entry, looked up): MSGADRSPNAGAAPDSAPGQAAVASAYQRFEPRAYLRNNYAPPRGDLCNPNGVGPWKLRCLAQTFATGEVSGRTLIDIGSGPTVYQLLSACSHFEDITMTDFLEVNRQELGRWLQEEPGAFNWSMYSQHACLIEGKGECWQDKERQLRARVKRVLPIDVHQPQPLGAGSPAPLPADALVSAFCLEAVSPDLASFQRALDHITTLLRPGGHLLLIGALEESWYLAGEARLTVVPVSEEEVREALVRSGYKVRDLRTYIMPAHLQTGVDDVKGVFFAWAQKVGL
# UniProt P40261, sequence (P40261 whole entry, looked up): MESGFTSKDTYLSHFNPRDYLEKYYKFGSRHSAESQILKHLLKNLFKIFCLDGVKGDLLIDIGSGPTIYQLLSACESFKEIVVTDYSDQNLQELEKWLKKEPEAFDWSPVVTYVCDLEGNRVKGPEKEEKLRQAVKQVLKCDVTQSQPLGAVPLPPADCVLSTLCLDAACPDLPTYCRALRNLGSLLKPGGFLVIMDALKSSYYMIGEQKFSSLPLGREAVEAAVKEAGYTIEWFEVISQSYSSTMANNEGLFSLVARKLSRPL
compound,measurement,setting,value
Cc1cc2c(cc3n2CC(C)(C(=O)NC2CCCCCCC2)N(Cc2ccco2)C3=O)o1 (stereo not drawn),IC50,[1],"21.5 µM [falling, partial curve]"
O=C(O)c1cccc(CN2C(=O)/C(=C(\c3ccccc3)c3ccc(Cl)cc3)c3ccccc32)c1,IC50,[1],"27.1 µM [falling, partial curve]"
CC(C)C[C@H](CO)Nc1nc(S[C@@H](C)c2ccccc2)nc2nc(N)sc12,IC50,[1],"24.1 µM [falling, partial curve]"
same,AC50,[2]; [5],"19.5 µM [falling, partial curve, poor fit]"
same,AC50,[2]; measured here: PEO4 viability,"24.5 µM [falling, single point]"
COc1cccc(N2C(=O)NC(=NC3CCCCC3)C23CCCN(CC2CCCCC2)C3)c1 (stereo not drawn),IC50,[1],"27.1 µM [falling, partial curve]"
COC(=O)c1cc2n(n1)CC(C)(C(=O)NC1CCC(C)CC1)N(Cc1ccc(OC)cc1OC)C2=O (stereo not drawn),IC50,[1],"19.2 µM [falling, partial curve]"
c1ccc(CNc2cc(-c3cc(N4CCCCC4)ncn3)c3cc[nH]c3n2)nc1,IC50,[1],"27.1 µM [falling, partial curve, poor fit]"
same,IC50,[3],"24.1 µM [falling, single point]"
CC1(C)[C@@H](O)CC[C@]2(C)[C@H]3CC=C4[C@@H]5C[C@](C)(C(=O)O)CC[C@]5(C)CC[C@@]4(C)[C@]3(C)CC[C@@H]12,IC50,[1],"30.4 µM [falling, single point]"
same,IC50,[3],"24.1 µM [falling, partial curve]"
CC(CNC(=O)CCc1nnc2n(Cc3ccc(F)cc3)c(=O)c3ccccc3n12)c1ccccc1 (stereo not drawn),IC50,[1],"19.2 µM [falling, partial curve]"
CNS(=O)(=O)CC1CCC(N(C)c2ncnc3[nH]ccc23)CC1 (stereo not drawn),IC50,[1],"19.2 µM [falling, partial curve]"
same,IC50,[3],"12.1 µM [falling, partial curve]"
CC(C)CCn1c(=O)c2ccccc2n2c(CCC(=O)N3CCN(Cc4ccccc4)CC3)nnc12,IC50,[1],"17.1 µM [falling, partial curve]"
Cc1cc(F)ccc1NS(=O)(=O)c1ccc2[nH]c3c(c2c1)CCCC3,IC50,[1],"15.2 µM [falling, partial curve]"
C/C=C/c1ccc2c(c1)[C@@H](C)[C@H](c1ccc(O)cc1)O2,IC50,[1],"19.2 µM [falling, partial curve]"
S=c1ssc2c1CCC2,IC50,[1],"5.41 µM [falling, partial curve]"
same,IC50,[3],"10.8 µM [falling, partial curve]"
COc1cncc(Nc2ncc(-c3ccccc3OC)c3c2OCC3)c1,IC50,[1],"35 µM [falling, partial curve]"
CC(C)n1cc(-c2ccc(Oc3ccccc3)cc2)c2c(N)ncnc21,IC50,[1],"21.5 µM [falling, partial curve]"
same,IC50,[3],"15.2 µM [falling, partial curve]"
COc1ccc(CCN2C(=O)c3ccc(-c4ccco4)n3CC2(C)C(=O)NC2CCCC2)cc1OC (stereo not drawn),IC50,[1],"19.2 µM [falling, partial curve]"
CCc1cccc(NC(=O)Cn2c(=O)oc3cc(S(=O)(=O)N4CCCCC4)ccc32)c1,IC50,[3],"15.2 µM [falling, partial curve]"
Cc1cc(Nc2nc(N[C@@H](C)c3ccc(F)cc3)c(C#N)cc2F)n[nH]1,IC50,[1],"21.5 µM [falling, partial curve]"
same,AC50,[2]; [5],"0.977 µM [falling, full curve]"
same,AC50,[2]; measured here: PEO4 viability,"0.871 µM [falling, full curve]"
same,z-score,[4]; [6],-0.345
same,z-score,[4]; [7],-0.613
same,AC50,[4]; [8],"5.9 µM [falling, partial curve]"
same,z-score,[4]; [9],0.193
same,AC50,[4]; [10],"20.9 µM [falling, partial curve]"
CCOc1ccc(-c2ccc(Cn3c(CC(C)(C)C(=O)O)c(SC(C)(C)C)c4cc(OCc5ccc(C)cn5)ccc43)cc2)cn1,IC50,[3],"30.4 µM [falling, single point]"
Cc1cc(NS(=O)(=O)c2ccc3[nH]c(=O)[nH]c3c2)ccc1Br,IC50,[3],"17.1 µM [falling, partial curve]"
O=C(Nc1ccc(C(F)(F)F)cn1)N1CCN(c2ncccc2C(F)(F)F)CC1,IC50,[3],"21.5 µM [falling, partial curve]"
CS(=O)(=O)c1cccc(CNc2nc(Nc3ccc4c(c3)CCC(=O)N4)ncc2C(F)(F)F)c1,IC50,[1],"19.2 µM [falling, partial curve] and 19.3 µM [falling, partial curve, poor fit]"
same,AC50,[2]; [5],"21.9 µM [falling, partial curve]"
same,AC50,[2]; measured here: PEO4 viability,"6.16 µM [falling, partial curve]"
same,z-score,[4]; [6],0.19
same,z-score,[4]; [7],-0.146
same,AC50,[4]; [8],"18.7 µM [falling, partial curve]"
same,z-score,[4]; [9],-0.0736
same,AC50,[4]; [10],"23.5 µM [falling, partial curve, poor fit]"
